This note sets out measurements from ChEMBL document CHEMBL4888484, “Replenishing the malaria drug discovery pipeline: Screening and hit evaluation of the MMV Hit Generation Library 1 (HGL1) against asexual blood stage Plasmodium falciparum ,using a nano luciferase reporter read-out” (2022).

A word on the % Inhibition: it is the change of the read-out against control, counted positive when it falls.

Molecules are shown by their SMILES. The whole screen tested about 150,000 compounds, of which about 540 (0.36%) showed an effect of 50% or more. This is one part of the list.

For the assay, the system named is Plasmodium falciparum. Nature of the assay: Primary screen in NF54 nanoGlo assay, in single point, at 2uM, 72h; a lower Z score goes with more inhibition. The class given is functional, Erythrocyte. As to conditions: timepoint 72 hour.
On to `CC(C)Cc1cc(C(=O)N2C[C@@H]3CC[C@H]2CN(C2CCOCC2)C3)on1`, for which the “% Inhibition” value is recorded as -22% and the Z score worked out at 1.97.

As for `CCOc1ccc(OCC)c2sc(C)nc12`, the “% Inhibition” value is recorded as -10% and the Z score is 1.24.

As for `O=C(Nc1ccc2nn(-c3cccc4ccccc34)nc2c1)c1sc2ccccc2c1Cl`, the “% Inhibition” value came out at 4% and the Z score is -0.49.

For the molecule `CCOC(=O)CN1CCC2(CC1)CCN(C(=O)c1ccccc1OC)CC2`, the “% Inhibition” value is -13% and the Z score worked out at 1.18.

For the molecule `Cc1nc(C#N)c(N2CCN(C(=O)CN3CCC(C)CC3)CC2)o1`, the “% Inhibition” value was -8% and the Z score came to 1.11.

For `O=C1NCCN1CCn1cnc(-c2ccccc2)c1-c1ccc(F)c(F)c1`, the “% Inhibition” value is recorded as -10% and the Z score is listed as 0.95.

Regarding `O=C(NCC1(O)CCC2(CC1)OCCO2)Nc1ccccc1C(F)(F)F`, the “% Inhibition” value is reported as 33% and the Z score is -3.72.

For the molecule `Cc1ccc(NC(=O)Nc2ccccc2C#N)cc1NC(=O)Nc1ccccc1C#N`, the “% Inhibition” value is on record as 3% and the Z score is listed as -0.49.

As for `CC1(C)[C@H](Cc2cc(CN3CCCCC3)on2)C[C@@H]1NC(=O)c1ccco1`, the “% Inhibition” value came out at 0% and the Z score is 0.03.

For the molecule `O=C(N[C@H](c1ccc(F)cc1)C1CCCC1)C1CCC(O)CC1` (some centres undefined), the “% Inhibition” value is recorded as 8% and the Z score was -0.83.

In the case of `CC(=O)Nc1ccc(Cc2nc(-c3ccc(NS(=O)(=O)c4cccs4)cc3)no2)cc1`, the “% Inhibition” value is -8% and the Z score worked out at 0.97.

`CCOC(=O)c1csc(Nc2ncccn2)n1`: the “% Inhibition” value is recorded as 13% and the Z score is -1.67.

With `O=C1CCC(=O)N1C1CCC(NCc2c[nH]nc2-c2cccc(Cl)c2)CC1` (centres undefined), the “% Inhibition” value was -1% and the Z score is 0.16.

As for `Nc1cccc(-n2ccnc2-c2cccc(C(=O)O)c2)n1`, the “% Inhibition” value is listed as -8% and the Z score is recorded as 1.2.

Consider `Cc1nccn1Cc1c(C(=O)O)c2cc(O)c(Br)cc2n1C`, for which the “% Inhibition” value is 32% and the Z score is -3.63.

Regarding `COc1ccc2c(c1)C(N1CCN(C(=O)CC(C)(C)C)CC1)=Nc1ccccc1O2`, the “% Inhibition” value came out at 1% and the Z score is on record as -0.13.

Take `CCNC(=O)c1nn(-c2ccc(Cl)cc2)c2c(=O)n(C)cnc12`: the “% Inhibition” value is -12% and the Z score is on record as 1.09.

Regarding `CC(C)Cc1ccccc1CNC(=O)Nc1nnc(C2CCOCC2)s1`, the “% Inhibition” value is -15% and the Z score was found to be 2.29.

Consider `CC12CCC(C(=O)N3CCCC3)(c3nc4ccccc4nc31)C2(C)C` (centres undefined), for which the “% Inhibition” value is recorded as -20% and the Z score turned out to be 3.81.

As to `CC1CCN(S(=O)(=O)c2ccc(-c3cn4ccccc4n3)cc2)CC1`, the “% Inhibition” value is given as -20% and the Z score is 3.74.

For the molecule `Cc1nc(C2(C)CCN(S(=O)(=O)c3ccc4c(c3)CCC4)CC2)no1`, the “% Inhibition” value was -8% and the Z score came out at 1.03.

As to `O=S(=O)(c1ccc(Br)c2ccccc12)N1CCCc2ccccc21`, the “% Inhibition” value is reported as -5% and the Z score was determined as 1.02.

In the case of `O=C(O)C1=C[C@@H](c2cccc3ccccc23)n2ncnc2N1`, the “% Inhibition” value was -4% and the Z score is 0.54.

In the case of `CN1CCN(S(=O)(=O)N[C@@H](CO)c2ccc(F)cc2)CC1`, the “% Inhibition” value is -12% and the Z score is listed as 2.47.

With `C[C@H](NC(=O)Nc1ccc(F)cn1)c1nnnn1C1CC1`, the “% Inhibition” value is on record as -5% and the Z score came out at 0.69.

Regarding `Cc1cccc(N2CCN(C(=O)c3noc4c3C[C@@H](C)CC4)CC2)c1C`, the “% Inhibition” value is recorded as -1% and the Z score was 0.26.

On to `CCN(CC)Cc1cnc2c(C(=O)N3CCN(c4ncccn4)CC3)cnn2c1`, for which the “% Inhibition” value is -10% and the Z score stood at 1.02.

On to `Cc1ccc(F)c2[nH]c(C(=O)NC[C@H]3CC(=O)N(C)[C@@H]3c3cnn(C)c3C)cc12`, for which the “% Inhibition” value was -3% and the Z score was 0.53.

Consider `Cc1nc(N2CCOCC2)c2c(C(=O)N3CCN(c4ccccc4)CC3)c(C)oc2n1`, for which the “% Inhibition” value is 5% and the Z score is on record as -0.82.

In the case of `O=C(Cc1ccc(F)cc1)Nc1ccc(-c2cc3cc(Cl)ccc3[nH]2)cc1`, the “% Inhibition” value is -2% and the Z score is given as 0.15.

`Cc1cc(C)n(-c2ccc(COc3nc(C(C)(C)C)no3)cc2)n1`: the “% Inhibition” value is on record as -3% and the Z score came out at 0.41.

Take `COc1cc(NC(=O)COc2ccccc2OC)ncn1`: the “% Inhibition” value was -5% and the Z score stood at 0.96.

As to `Cc1cc(=O)[nH]c(NCCNC(=O)c2ccc(-c3sc(C)nc3C)cc2)n1`, the “% Inhibition” value is listed as -5% and the Z score came to 0.43.

As to `O=C(NCC(F)F)C1CCCC(O)C1` (centres undefined), the “% Inhibition” value is reported as -6% and the Z score was determined as 0.71.

In the case of `O=c1ccc(Br)cn1Cc1nnc2n1CCCCC2`, the “% Inhibition” value was -3% and the Z score was found to be 0.4.

`CCN(Cc1ccccn1)[C@H]1CCc2ccccc2NC1=O`: the “% Inhibition” value is recorded as -7% and the Z score was 0.8.

For `O=C(NCc1ccc(Cl)cc1)N1CC[C@H](O)[C@@H](O)C1`, the “% Inhibition” value is -3% and the Z score is 0.44.

Take `Cn1cncc1CN[C@H]1CCOc2ccc(F)cc21`: the “% Inhibition” value is -4% and the Z score is given as 0.54.

`COc1ccc(NC(=O)c2c(C)nn(-c3ccccc3)c2C)cc1S(=O)(=O)N1CCOCC1`: the “% Inhibition” value is recorded as -5% and the Z score is listed as 0.93.

Take `COc1ccc(CN[C@H](C)c2onc(-c3ccccc3)c2C(=O)O)cc1`: the “% Inhibition” value is on record as -5% and the Z score came to 0.76.

For `C[C@H]1CN(C(=O)C2(C#N)CCOCC2)C[C@]1(O)C1CC1`, the “% Inhibition” value was -6% and the Z score was determined as 1.07.

In the case of `CN1CCC[C@H](CCc2nc(Cc3cccc(Cl)c3)nn2CCO)C1`, the “% Inhibition” value stood at 1% and the Z score is given as -0.05.
